# ± gives the standard deviation of the averaged measurements. The full ranking holds about 4,100 sequences; the median of “arbitrary fluorescence units” is about 780, and the highest 2% start at about 22,000. This is one part of the list.
# Molecular target: T1, ETS1 (UniProt P14921)
# T1 sequence: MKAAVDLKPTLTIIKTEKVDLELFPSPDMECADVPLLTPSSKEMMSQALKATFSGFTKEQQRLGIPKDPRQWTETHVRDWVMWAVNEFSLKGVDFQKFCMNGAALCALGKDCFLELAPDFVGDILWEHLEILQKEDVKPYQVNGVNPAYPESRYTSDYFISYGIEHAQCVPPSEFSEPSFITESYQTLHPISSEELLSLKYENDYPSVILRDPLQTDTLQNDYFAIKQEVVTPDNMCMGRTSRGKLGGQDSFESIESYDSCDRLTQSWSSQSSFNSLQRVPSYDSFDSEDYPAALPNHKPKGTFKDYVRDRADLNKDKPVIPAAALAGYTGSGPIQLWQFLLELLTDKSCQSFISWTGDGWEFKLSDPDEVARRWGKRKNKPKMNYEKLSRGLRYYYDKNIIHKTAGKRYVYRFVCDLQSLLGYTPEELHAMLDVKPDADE
# Assay: ETS1 binding intensity (PBM fluorescence), ETS1 alone (arbitrary fluorescence units); higher = stronger binding
# Settings: ETS1 concentration 1 nM; RUNX1 concentration 0 nM
# Outline: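 Double-stranded Agilent 4 × 180k arrays held 36-bp genomic probes whose RUNX1 partner site was mutated, and these were incubated with 1 nM full-length recombinant human ETS1 in the absence of RUNX1 under standard PBM protocols. Bound protein was labelled with anti-ETS1 antibody (Cell Signaling Technology 14069) plus an Alexa488-conjugated secondary and read on a GenePix 4400A, with four spots printed per sequence. Binding level is reported as raw spot fluorescence intensity summarised over replicate spots.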
row,Sequence,ETS1 binding intensity
1,CAGGTCACCCCAGTCCCCACCACTTCCTGTTATTGT,3940
2,CGGCGCCTACGGCCCACCCCTCCCTTTCCGGTCCCC,1140
3,TTGGGGCCCCAGAGAAAGTCAGCGGAACGTGAAATG,337
4,AAGCCACTTCCTGGTGACCCAGTGATAAACACTTGA,12300
5,CACGTCCTACGGCCTCAGCCGCCTCTTCCGCCATCC,1230
6,AAAACCCGGGAATCGCCGCGAACCGGAACCGCCTTC,503
7,AGCAACAGGAAAGAACAGCCTGAGCACAGCAGCCAC,778
8,TGTGTAACTTCCTGGCTTTGGTGCTTTCCCCCTCCT,4640
9,TGTCGCCAGCGCTGGATGGAGCCTTGCCGGATCTCC,316
10,CAGCCAGCCAGGAAGCAGGGGCTGAGGGGCTGACAG,860
11,GCAACTGAACAGGAAACTAAAAAACCCCAACACTTA,2240
12,GGGGTCAGGAAATGGGTGTGCCGAGGGTAAGGCGCT,2060
13,GAAGTGAGTTAAGGAGCTGCACTGCTTCCTGCCCCC,826
14,CTGCGCTTCCGCGGCGCCGCTCTGGCCGCGCGAGGG,1530
15,CTGATGGCTGGGGTTCAAACTTCCCCTGGGTGACCC,506
16,CTCACAACTCGCGTCCGGCGGAGACCCCAATTCCCG,1260
17,CCGCCACCGAAGCTAAAACTTCAGGCGCCGGAACCG,408
18,GAAGAAATGTCGCTATCATCTTCCGTCCTTCACCGA,800
19,GGCAGGAAAGAGCTGATGCATTTCAACAGCAGCCTG,477
20,CAGGGGCTACGCGCGCAGGACGCTGTTTCCTGCCCC,849
21,GCGGAGGGAAGCGGAAATACTTGCAGTGGGGGCGAC,3700
22,AGAAGCCCGGAATGGACGCGAAAGTGAGCACGCGAA,380
23,CCAGCCACTTCCGCTCGTCCGCCTAATATCGCGCCT,21100
24,CTGACTTGTTGTAGTCTCTGCCACTTCCTGGGGTGT,661
25,TCTGCTGCTTCTCTGGTTTACGGAAATTGTAACCCT,493

row,Sequence,ETS1 binding intensity
1,GAGTGGGCGGAAATCCGTGCCTGGCAGACCAAAAAG,3810
2,GTCCAACAGCAGCCAGGCAAGCACATCCTGCCCCAC,1980
3,GGCCCTGGGCCGCTGGGGTAGCGACAGGAAGCGCCA,572
4,GGCCAAGAAATCCACTCAGAGGAAATCACAGGCCTG,439
5,GGTACTCGCGGCTGAGCCAGCGGAAGAACGCCGGGA,444
6,GCTCTCTGGCCTCCCCAGAGGTCAGATCAGGAAATG,358
7,AGGGAGGAAGGGTACTGTTGGGAGCCCGTAATGGAA,435
8,TCGCAGATATCACACCCACCCGGAAGTCCTCCTGGC,1390
9,GGCTAAAGTGATTGGGGGTTGGATCCGGCGCGTGAC,468
10,GGTCACTTCGGCCCAGAGGCCCGCTCTTCCGCTGAG,564
11,CCTGCGTTTCCCTCATGAGCTTCTTCGGCCCGAAAC,585
12,ATGAATGGGATGTGGCAGCCCAGCCCTGAGGTGGAG,348
13,CGGCGCTTGGGGGCGGGGCCGACCCCGGAAGGAAGG,641
14,GGTGGACCTGTGATTTGCAACACAGGAAGAGGTGGC,947
15,CCTACACTTCCCAGAGAACCTAGCGATTACGCCAAC,531
16,CAGTTTATCCTGTGAGAGCCTTGGGGTTCCTACTAA,975
17,AGAGGCAGTTCCGGGGTGGGACCCGCGCGGAGCTTT,3060
18,GCAGAGTAACTCACTCTAGTTGTCCCTTCCTTAAGC,434
19,CACTTGTCCTTCCTGGCCTGCGCCCGCCACCACTTC,1320
20,GCCCTACCCAGCGGCGGCCGGACGCTTCGGCGCAGG,435
21,ATCGACTACCGAATCTGCAGACGTGCGCGGAAATGG,482
22,CCGCGAACAGCAGAGTTCCCGCCTTCCGCAGCCCGG,431 ± 38
23,ACAGCTCACACAGGAAATACAAACCTTAAAAAGCAA,5480
24,GAACGGAACTGGGGGCTGGGCCGTGTAGGTTTGTGA,456
25,GCCGTCACTTCCGTCATTCAAGCCGCCCGCCAATGG,9110

row,Sequence,ETS1 binding intensity
1,CGGGAGAGGAAGCCGGGTTGGACAGAGGTGGATTCC,767
2,GACCAGGAAACGGGGCGTGGCGGCCGCCGTGGCTAC,1230
3,ACACGCACCATTTCCCGACTTTCGAGGTGTCCCAGG,1300
4,GTAAAGAGCAGCCGCTGACAGGAAGGGGCCCAGCAG,707
5,ACCCCAGCCGGATCCTCTGCTTATCTCCCACGTGCA,395
6,CAGGCCTGTAGTTTCTGTAACAGGAAGTGATTTAGA,3870
7,AAAACCTTTAAACTACAGGGGACAGGAAATGAGTGC,1990
8,CAGCAAGTCACAGGCAGTAAACATTTCCTGTCCCCA,3920
9,CTGCCCAGCCACTTCCTGCCCAACCCCAGACTGACA,16300
10,GAGTACAGGAAATGCAAAGTAAAATCACAGTGAGAT,6100
11,TGCACGTGAGCACGGACTTTTTTTCATATCCGCCGA,502
12,GGCTACCGGCACCCTCAGTGTCCGGAAACGCAGTCC,1480
13,TCTCTTCTCCCCATCCGCCCGAGACAACAGCCACTC,1070
14,TGAAGCAGGCGGAAGTGCTGTGCTTTCTGGCGACTG,3140
15,CTAGCAACCTCGGGAAGGGGGCGTGGCCGGAAGCCT,677
16,TTTCTTCCTGTTTGCATCACCCCAAATCCACTATCA,16900
17,AAAGAGGAAATCACATACCCGAAAATCACATGCACA,777
18,AAAGAGAAAGGAAACAAAGTATAGCACCAGAGTGAG,505
19,AGCAGCCGCCGTAACCTGTAGCAACCGGAAGATGTC,2460
20,CCGCTCACAAGGAGGACTGAGACGCTTTTCCTGATA,441
21,AGCGGCGGAACCACGCGCGGGAGCTGGTGCGCTCGG,325
22,TGACTGCTCACTTCGGGCGAGGGGAAGTGGAGTGCA,446
23,GAAACTACAACCTACCCCAGCCTTCCTTCCGGGCGC,504
24,AGCCACATCCTCCCTTAGGTCTGAGCGCAGCTTAAC,5620
25,CCTCCTCCAGACCATCCTGGAAACCCCTGCCGTTCT,478 ± 88

row,Sequence,ETS1 binding intensity
1,TTGCCGACCTCGGGGAGCAAGCGCCCGCCGGAAGCA,477
2,TCACAGCGCAGCGGGGCCGGAAGGGGAGCGTGGGAG,807
3,CAACCAGCCCCTCAGCTGAGCTTCCGCTCAGCTCTC,1590
4,GGTACACCCCGCCCTCAGGTACCCGGACGGCGCAAG,345
5,CTCCTGTGGGATGTGACTTCAAGGAGACAACAGATG,522
6,TGGAGGTGCTTACACACAGCTGTTTCCGTGAGGGTG,421
7,AAGCCGGTGGATTCTGGAGGTTCAGCACATCCTGGA,531
8,AGTCTCGTTTCCTGTGCGCTGTTGCCACCTGGCAGC,12800
9,TCATAAGGAAGTGGAGTGTAGTAATCACAGGCCCCG,589
10,GCCGGCGGCCGGAAGTCTATCCCGGAGAAGCGCAGC,14600
11,CGGTCTGACCCCAAACTCTGCCTTCCGGCAAGGCTG,936
12,TGGCTACCCGGAAGGCGCGTTGGCTGCGCCTACGCA,749
13,TCAAAAACCTTAGCACTTCAGCCGGAAACTACAGGA,704
14,ACAGATGGTCCGGAACTTCAGAAAAGCACTCATTGT,566
15,CCCAATTTCCTTTGCTCTGCTGTCTGCCAACCCCAA,3560
16,GAGAAGAACCCCAATTCAAAGTGATGGGGGAAATGG,435
17,AAGGGCCGCTCTGGTGTCCGGATGCTGGGACGGTGC,476
18,CCGTAAGCGCTCTTTCCCCGAGCGGAAGCACAATGC,869
19,GCTCTGCATCTTTTGGGCTAAGGAAGCAGGTCCCAC,358
20,CTGTCGTGACCCGGCAGGAGTAGCGTCGGAAGCAAT,403
21,CCCGGCGGAACTCGCTGTCCCGGCAGGCACCGTGGC,632
22,AAAGCCAACTACAACATGAAGGGGAAGTACACAATA,463
23,GAAGGAAGTGGAGACAGTAAGGGGAAACTACAAACC,993
24,GCACGCCTGAGGGTGCTCATGGGAAATGTAGTTTTT,349
25,AGAAGCGGCGCCCGCCCCCGTTTCCTCTCTTCCTCC,715

row,Sequence,ETS1 binding intensity
1,ATTAAAGACTTCCGTGCAAGAGCACAGCTGCCTGAC,4380
2,GCAAAGTTCTGGGAGCCCTACTTCCTGCGGAGCCCC,2310
3,GCGGGCGCACTTCGGGGGCCAAGGAAGGAAGAAATG,412
4,TTGACCCGGACGTGGACAAAAGACAGCAAAGGACGC,1080
5,TCAGTTTCCTCATCAGGGGCAAGGGCACCACCTCGG,2048
6,CCAGCGCCGAGGTACAACCTCGGCACTTCCGCCCGC,2290
7,TTTACGGCGCTAGTGCTCTGGTCACCGGAAGTCCCT,2070
8,TTATCTGTCGTTCTTTTATGGGGTGGGCTTCCTCTG,503
9,AGTCTTAGCACCTCTGAGGATGACTGAGCGGAAGAG,449
10,CCCAACCATTTCCGCCACACCTCCAACCTACTGCCG,12000
11,ACTCGCGCACCCCCAGAGTTCCCCTTCCGGCAGTGG,1130
12,CCCTTGCCTGCAGGACGGCGGCCCGGAAGTGACGTA,2590
13,TCAGCAAGACCCCAAACCCACCGGAAAGAAGAAACT,820
14,GCCTCCTCACCCCAGTGAGCACATCCCCTTGGGTTG,302
15,TTTTATCTTCCGCGAGCCCTCATCCCTCAACTCTTC,691
16,TTCTGAGGAAGTCCTTGGCTGAGGTAGGGCCGAAGA,439
17,AATCGCGCAGTTCCGCAGCTGCCGCCCCACGAACGC,570
18,GAGGGGTGGGGGAGGAAGGCTGCGGATTCTGCTGGG,1220
19,TCTGTGCGAGCTGCAGCTCTCAGACTCAGGATGAGG,309
20,CGTGTTCCGTAAGCACCACCCCTCTTCCTGTTTCTC,1610
21,GTGAGCTTCCCGGCGCGCGGGGGGCGGTGCGCCTTC,797
22,ACACTGGGAAGTGCCATGGCCAGCGATTTCTTGCAA,366
23,CAACCCGGAAGCACTAACGGAGAAATCGCAACTCGG,2860
24,TGCGCCGCTGCGCCCCAGCCTCCGGAAGACAGGGGA,398
25,CTGCAGCCGAGGTCTCCCGGCGGAAGCTCTTCACTT,519

# Reference: the supplement of paper PMC10681739
